{"source": "the supplement of paper PMC11417369", "note": "± gives the standard deviation of the averaged measurements. The list shows a part of the results.", "data": [{"tested_on": "PfAP2-I AP2 domain 3 (GST-tagged)", "test": "gcPBM binding intensity (ln(normalized median fluorescence intensity)); higher = stronger DNA binding", "how_it_was_run": "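Binding intensity values are the highest Masliner-normalised natural-log median intensity among replicate spots of either probe orientation. The binding step lasted 1 h in 1× PBS with 1% milk, 0.2 mg/ml BSA, 0.5% salmon testes DNA and 0.03% Triton X-100, using GST-tagged P. falciparum DNA-binding domains expressed in E. coli on an Agilent 4 × 180k array of primer-extended double-stranded 36-bp intergenic genomic probes plus negative controls. Alexa488 anti-GST antibody and a 488 nm scan detected bound protein.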", "values": [{"sequence": "AAGGATAATAGGTACACATGCAATATTCATATATAC [TGCATGCA_site523]", "gcPBM binding intensity (ln)": "8.09 ± 0.54"}, {"sequence": "TTTCACACTATTTCATGTACACATAAAATTATATAT [XGTACX_site8692]", "gcPBM binding intensity (ln)": "8.34 ± 0.42"}, {"sequence": "TAAATATAATAAAAGTGTACTTACACTTACATATAA [XGTACX_site1206]", "gcPBM binding intensity (ln)": "7.61 ± 0.38"}, {"sequence": "ATATAATAAGGTTAAGCACACATATTACATATATAA [CACACA_site9110]", "gcPBM binding intensity (ln)": "8.35 ± 0.23"}, {"sequence": "TTGTATATATTTCCTTGTACGTAATAATTCTTATTG [XGTACX_site3938]", "gcPBM binding intensity (ln)": "7.96 ± 0.73"}, {"sequence": "AACAGATAAAAGGGTACACACATATATACATGTACA [CACACA_site225]", "gcPBM binding intensity (ln)": "7.66 ± 0.4"}, {"sequence": "TTTTATTCCGTTTCAAAATAAGAAAAAAAAAAAAAT [CACACA_negctrl_site1199]", "gcPBM binding intensity (ln)": "7.73 ± 0.52"}, {"sequence": "TACTTCTCATTTGTTGTTGTATTTTAGGCATACCCT [XGTACX_negctrl_site385]", "gcPBM binding intensity (ln)": "7.78 ± 0.74"}, {"sequence": "TTTTATTTATCATACACACACAGAAAAAAAAAAAAA [CACACA_site158]", "gcPBM binding intensity (ln)": "8.14 ± 0.55"}, {"sequence": "CCTTTCCTTTTATAAGTGCATATAACAAATGTATAC [GTGCAC_site9872]", "gcPBM binding intensity (ln)": "10 ± 0.11"}, {"sequence": "GAATGTTTATTATATGCATGTTATATATATGAATAT [TGCATGCA_site4]", "gcPBM binding intensity (ln)": "7.7 ± 0.48"}, {"sequence": "AATAATGAAAAATCAAATAACCTAAATTACAACTGT [XGTACX_negctrl_site65]", "gcPBM binding intensity (ln)": "7.62 ± 0.54"}, {"sequence": "TCAAAAGAAATAAAAACATGCATAAAAGTAAAAATA [TGCATGCA_site832]", "gcPBM binding intensity (ln)": "8.03 ± 0.84"}, {"sequence": "TTATGATAATTTTGCACACACTTAGGAAAAATTATG [CACACA_site4949]", "gcPBM binding intensity (ln)": "9.4 ± 0.19"}, {"sequence": "AAATAATATATATACACACACACATATATATATACA [CACACA_site554]", "gcPBM binding intensity (ln)": "8.02 ± 0.39"}, {"sequence": "ACGTATATTTTTACATGTACATATGTAAAAAATTTT [XGTACX_site4587]", "gcPBM binding intensity (ln)": "7.92 ± 0.39"}, {"sequence": "TGTTTTTCATAGTGCACACATAACCAAAAATAGTAT [CACACA_site3150]", "gcPBM binding intensity (ln)": "11.5 ± 0.67"}, {"sequence": "TAAATATATAAATACACACACATACACAAAAAAAAA [CACACA_site5890]", "gcPBM binding intensity (ln)": "8.12 ± 0.57"}, {"sequence": "TATACACCCTAAAATACACACACACCCACCCATATA [CACACA_site9380]", "gcPBM binding intensity (ln)": "8.39 ± 0.79"}, {"sequence": "TATAAACCAATGAACACACAAACATATATATATATA [CACACA_site3168]", "gcPBM binding intensity (ln)": "9.44 ± 0.49"}, {"sequence": "TCTTTTTATATTTATTGTACATAAAAAATAAAACAT [XGTACX_site4073]", "gcPBM binding intensity (ln)": "8.03 ± 0.3"}, {"sequence": "TTTTTTTTTCTTTCTTTCTTTTGTAAAAACCTCAAA [CACACA_negctrl_site723]", "gcPBM binding intensity (ln)": "7.79 ± 0.7"}, {"sequence": "ATATGTATATATAAAAGTACGCGTAAAAAAAAAAAA [XGTACX_site5377]", "gcPBM binding intensity (ln)": "8.25 ± 0.71"}, {"sequence": "TAATATATATATTTATGTACATATAAATTTTCTCCT [XGTACX_site4496]", "gcPBM binding intensity (ln)": "7.71 ± 0.4"}]}]}
